# Whole data set: some 33,000 sequences, median “E-score (-0.5 to 0.5)” near -0.016, cut for the highest 2% near 0.31. The list shows a part of the results.
# Target: Cst6 (UniProt P40535)
# Assay: PBM E-score (8-mer binding enrichment) (E-score (-0.5 to 0.5)); higher = stronger / more preferred TF binding; most listed sequences are background and not binding sites
# Conditions: protein concentration: 200 nM; construct: GST-DNA-binding domain
# How it was run: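 E-scores (a modified Wilcoxon-Mann-Whitney statistic) were assigned by the Universal PBM Analysis Suite to every ungapped eight-base word pooled with its reverse complement. The input came from universal all-10-mer Agilent arrays made double-stranded by primer extension and probed with GST-tagged yeast transcription factors at about 100-200 nM. Fluorescent anti-GST detected bound protein, and masliner normalised the scans.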
row,Sequence,PBM E-score
1,ATGTTTAG,0.146
2,TCTCCCAA,0.015
3,CCACCGCA,-0.227
4,TACATTCA,0.0794
5,TACAGACA,0.174
6,GGTTTTAC,-0.184
7,CCTTCCGA,-0.149
8,TGACGACA,0.476
9,CCCGCGCA,-0.172
10,ACGCAAAA,0.191
11,CCCCTACA,-0.307
12,AGTTTCAT,0.132
13,GCAGCATA,-0.133
14,ATCCTCAG,-0.0631
15,CGCCTCGA,0.0753
16,AACAAAGC,0.249
17,ATCTTGTG,0.00381
18,AAGGAAGT,0.0426
19,CATAACCG,-0.0921
20,CCCCGGCC,-0.326
21,CAAATTTA,0.221
22,CATGCGAC,-0.0464
23,ACTCGTCC,-0.094
24,GAGCACAA,-0.0554
25,CCGCCGCC,-0.0332

row,Sequence,PBM E-score
1,GCAAGCAA,0.0462
2,AATTGGAG,-0.152
3,CTTCGAAG,-0.21
4,GATCGTGC,0.0187
5,GAAAAGCA,-0.0869
6,CACCAGAC,0.0878
7,AACGGTAG,-0.183
8,GCACTGGC,-0.193
9,ATGCTTAC,0.047
10,AGTATAAC,-0.0732
11,CGGAGTCA,-0.0501
12,CAGGGCCG,-0.137
13,ATTGCTGC,0.0873
14,CAACCCTC,-0.27
15,GGTTAACA,0.16
16,CCCGGCTA,-0.179
17,CTATTAAA,0.192
18,CCTGGCAC,-0.255
19,AATTAGTG,0.241
20,GAATCCCA,-0.0246
21,TCGTTCAA,0.0239
22,TATCCCGA,0.00184
23,CAGGTCTC,-0.254
24,CAAAAAGC,0.132
25,CGCGCGGC,0.378

row,Sequence,PBM E-score
1,ATCTTAAC,0.267
2,ATTGTCCA,0.0668
3,AGGTTTAG,-0.0746
4,AACAATTC,0.17
5,AGCATTCG,-0.105
6,ATCATAAC,0.239
7,GGATCTTA,-0.0569
8,CTAGAAGC,-0.191
9,CCAGTAGA,-0.112
10,ACAGATTA,-0.0146
11,AGGATGCC,0.0165
12,AGTAGAAC,-0.0674
13,ACCTTAGA,0.0287
14,AGAAGCTG,-0.0818
15,ATCGATTA,0.143
16,GCACTACA,-0.107
17,ACGTATCT,0.142
18,CCAATGCC,-0.183
19,AATGTTGG,0.114
20,GAAACCGC,0.0497
21,ATTTAACG,0.184
22,AAGGGCCT,-0.251
23,CGTAGCCC,-0.203
24,GAGCGTCC,-0.225
25,AATGGACG,0.154

row,Sequence,PBM E-score
1,AGAGTCGC,-0.036
2,ACTCCTAG,-0.202
3,ATGACACC,0.228
4,TCGGAACA,0.00799
5,GGGGCTGA,-0.23
6,CTGATGTC,0.287
7,ACTGAACC,-0.208
8,AACGGCGA,0.301
9,GGGCATCA,0.123
10,CGGTACAC,-0.126
11,GACTGATA,-0.143
12,AGCTCCGC,-0.265
13,ACTAACGC,-0.0588
14,AACAAGAC,0.0788
15,AATGGTGC,0.0118
16,AGGGGGGA,-0.325
17,ATTCTTCA,0.0478
18,CACTGGGA,-0.101
19,TAGTTCCA,0.0367
20,AATATCTG,0.046
21,TAAACAAA,0.207
22,CGGCTTGA,-0.0221
23,CAACGCCC,-0.166
24,CTACAATC,0.118
25,CCGACAGG,-0.152

row,Sequence,PBM E-score
1,ATCGCGTG,0.0786
2,CAATACAG,-0.0247
3,CTTTGGAA,0.0614
4,CGGATATA,0.201
5,CGCTGCTC,-0.267
6,CCTTAATC,-0.119
7,AAATTCGC,0.211
8,CAGGGCCC,-0.335
9,CGTATTTA,0.358
10,AGGCTACA,-0.146
11,ACTCTCAA,-0.0131
12,AAGGTTAG,-0.0685
13,CGATCAGC,-0.0539
14,GGCCAGTA,-0.0588
15,AGATCCCG,-0.0994
16,CACCTCTA,0.0369
17,CTGTTAAC,0.235
18,CCTTACCA,-0.119
19,CCAGCACC,-0.316
20,ACTTAAAG,-0.0617
21,AATGTTAT,0.0813
22,ACCACCCC,-0.294
23,CACGTGCA,-0.0386
24,CTTAGCAA,-0.0618
25,ACTGATTC,0.128

row,Sequence,PBM E-score
1,GAAATTCA,0.193
2,AACCTATG,0.0657
3,AGCTTAAA,-0.0393
4,CGGTAAGC,-0.169
5,CCGCAAGC,-0.17
6,GTCGCGAC,0.191
7,GGACCTCA,-0.137
8,GCTTCAAA,-0.0353
9,ATGAGGGC,-0.185
10,AGAACATC,-0.0776
11,AATGTGCG,0.16
12,ACAAAGGC,-0.00565
13,AACGTGCC,0.0635
14,GGCACTGA,0.14
15,AGCTTCTG,-0.23
16,CTAACTTC,0.1
17,CACCCGCA,-0.105
18,AACAACAT,0.0753
19,GCGCTTAC,0.0667
20,AGTGTAGG,-0.0607
21,ACTCAAGT,-0.053
22,GGGCTACA,-0.136
23,TGCGGACA,0.196
24,CACAGAGC,0.0246
25,AGATTTTG,0.121

row,Sequence,PBM E-score
1,GACATAAC,0.219
2,TAAACCCA,0.0469
3,CTTATCGA,0.0824
4,AGCTCCAT,-0.081
5,GGTATATA,0.251
6,ACACTATA,0.133
7,CATGAGGC,-0.0607
8,GTCTATAA,0.102
9,ATCAACAG,0.179
10,AGATAGAA,-0.042
11,ACAGGGAC,-0.15
12,CTCCGTGC,-0.107
13,GCTTCTGA,-0.0301
14,AGACATGA,0.0915
15,GGAACTTA,0.0321
16,AAGAGCGT,-0.0143
17,ATTCACAC,0.134
18,GCTACGCA,-0.0483
19,GCGATGCC,-0.135
20,GTGAGCAA,-0.0428
21,CCTAGGAC,-0.286
22,GAGTCAGC,-0.0801
23,CCCCTCAC,-0.128
24,ACAAATCG,0.0465
25,AAGATAGG,-0.037

row,Sequence,PBM E-score
1,AGCATATG,-0.166
2,ATTGGGGC,-0.109
3,AAGGCCCG,-0.255
4,ATTGACTG,0.0299
5,TTATACAA,0.244
6,ATTTTCGG,0.0362
7,CCGGGACG,-0.255
8,CATCTCCA,-0.0317
9,ACGAACAT,0.102
10,CGCTGTAA,0.101
11,ACACATTG,0.0817
12,CTTCTGGA,-0.161
13,AGAATTCA,0.0373
14,TGCTTCCA,-0.0816
15,AGGGCCAG,-0.312
16,ACTGCAGT,-0.072
17,GGCCTCCC,-0.283
18,ACTCCCAT,-0.0198
19,CATCCGAC,-0.0588
20,ACAGGATG,-0.00772
21,ACAGGAGA,-0.0136
22,ACTCCCAG,-0.205
23,TGGGAGAA,-0.157
24,ATCAGCCG,0.0405
25,ACATCCGC,0.153

row,Sequence,PBM E-score
1,AGCCCTAC,-0.0362
2,GTGTTGCA,0.0681
3,CAATAGCG,-0.0881
4,CTATTAAC,0.121
5,GGGATTAA,-0.177
6,ATAAGGAA,-0.038
7,GTCATCTA,0.368
8,GACATGCC,-0.0278
9,AGAAATCT,0.161
10,ACCGCTGC,-0.223
11,CATTGTAA,0.0849
12,CATCATGA,0.363
13,ACGACTCC,-0.181
14,AACCGCAG,-0.16
15,CCTAACGC,0.0556
16,CATCAGTA,0.164
17,AGCTGAAT,0.0198
18,AACCGAGG,-0.209
19,CGTTCCTC,-0.142
